Measured values from paper PMC5303829, “A CAF40-binding motif facilitates recruitment of the CCR4-NOT complex to mRNAs targeted by Drosophila Roquin” (Nature Communications, 2017).
No constants are given. Whether binding was seen depends on the method and setting. For some assays here: Binding seen in cells or lysates may run through a third protein. Some results given as binding are weak or reduced against the parent protein; the word gives no strength. For some assays here: Where a sequence is shown, tags or fusion partners need not be part of it.

Chains of the proteins cited; added tags and fusions are not shown. Lines headed by an entry give the natural chain unless they say otherwise; changes in a name come on top. A line that says so, or that is headed by a name, gives the form on record, which may keep a tag or linker. Residues count along the entry.
UniProt A5YKK6, residues 1093-2371: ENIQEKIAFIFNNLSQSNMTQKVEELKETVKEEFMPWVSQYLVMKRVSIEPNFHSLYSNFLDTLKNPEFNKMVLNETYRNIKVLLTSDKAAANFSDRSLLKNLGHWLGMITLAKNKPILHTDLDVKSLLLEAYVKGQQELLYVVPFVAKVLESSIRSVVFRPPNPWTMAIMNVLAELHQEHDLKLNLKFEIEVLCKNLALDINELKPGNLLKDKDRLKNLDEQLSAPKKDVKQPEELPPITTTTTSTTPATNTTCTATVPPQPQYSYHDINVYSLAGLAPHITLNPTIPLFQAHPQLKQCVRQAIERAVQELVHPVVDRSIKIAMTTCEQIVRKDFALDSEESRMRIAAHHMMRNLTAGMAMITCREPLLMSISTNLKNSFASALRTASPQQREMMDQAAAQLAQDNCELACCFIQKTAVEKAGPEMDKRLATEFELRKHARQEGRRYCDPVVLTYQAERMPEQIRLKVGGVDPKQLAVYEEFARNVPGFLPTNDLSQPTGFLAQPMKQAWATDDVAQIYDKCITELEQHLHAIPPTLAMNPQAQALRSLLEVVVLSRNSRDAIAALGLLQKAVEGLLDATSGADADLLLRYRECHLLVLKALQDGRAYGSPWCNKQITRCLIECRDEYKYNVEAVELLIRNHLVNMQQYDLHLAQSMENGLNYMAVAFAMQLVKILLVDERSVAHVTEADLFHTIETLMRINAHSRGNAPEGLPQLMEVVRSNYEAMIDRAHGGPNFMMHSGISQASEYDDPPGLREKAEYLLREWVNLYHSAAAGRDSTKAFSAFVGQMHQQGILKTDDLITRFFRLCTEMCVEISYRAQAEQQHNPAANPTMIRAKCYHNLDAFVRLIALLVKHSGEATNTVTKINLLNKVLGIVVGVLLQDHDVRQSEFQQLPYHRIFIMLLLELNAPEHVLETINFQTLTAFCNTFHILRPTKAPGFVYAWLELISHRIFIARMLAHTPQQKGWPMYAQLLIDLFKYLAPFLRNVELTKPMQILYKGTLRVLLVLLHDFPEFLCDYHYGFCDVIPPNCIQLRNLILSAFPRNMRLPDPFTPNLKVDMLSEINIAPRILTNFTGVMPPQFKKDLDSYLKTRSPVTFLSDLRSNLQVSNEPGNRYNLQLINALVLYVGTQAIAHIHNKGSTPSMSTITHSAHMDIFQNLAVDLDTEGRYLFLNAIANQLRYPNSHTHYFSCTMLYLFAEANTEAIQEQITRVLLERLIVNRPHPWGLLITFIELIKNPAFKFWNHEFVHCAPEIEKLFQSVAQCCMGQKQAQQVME
UniProt O75175, residues 607-748: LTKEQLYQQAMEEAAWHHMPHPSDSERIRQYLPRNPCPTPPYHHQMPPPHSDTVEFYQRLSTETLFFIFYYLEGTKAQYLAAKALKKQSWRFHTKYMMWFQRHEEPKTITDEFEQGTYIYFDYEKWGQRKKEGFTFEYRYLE
UniProt A8DY81: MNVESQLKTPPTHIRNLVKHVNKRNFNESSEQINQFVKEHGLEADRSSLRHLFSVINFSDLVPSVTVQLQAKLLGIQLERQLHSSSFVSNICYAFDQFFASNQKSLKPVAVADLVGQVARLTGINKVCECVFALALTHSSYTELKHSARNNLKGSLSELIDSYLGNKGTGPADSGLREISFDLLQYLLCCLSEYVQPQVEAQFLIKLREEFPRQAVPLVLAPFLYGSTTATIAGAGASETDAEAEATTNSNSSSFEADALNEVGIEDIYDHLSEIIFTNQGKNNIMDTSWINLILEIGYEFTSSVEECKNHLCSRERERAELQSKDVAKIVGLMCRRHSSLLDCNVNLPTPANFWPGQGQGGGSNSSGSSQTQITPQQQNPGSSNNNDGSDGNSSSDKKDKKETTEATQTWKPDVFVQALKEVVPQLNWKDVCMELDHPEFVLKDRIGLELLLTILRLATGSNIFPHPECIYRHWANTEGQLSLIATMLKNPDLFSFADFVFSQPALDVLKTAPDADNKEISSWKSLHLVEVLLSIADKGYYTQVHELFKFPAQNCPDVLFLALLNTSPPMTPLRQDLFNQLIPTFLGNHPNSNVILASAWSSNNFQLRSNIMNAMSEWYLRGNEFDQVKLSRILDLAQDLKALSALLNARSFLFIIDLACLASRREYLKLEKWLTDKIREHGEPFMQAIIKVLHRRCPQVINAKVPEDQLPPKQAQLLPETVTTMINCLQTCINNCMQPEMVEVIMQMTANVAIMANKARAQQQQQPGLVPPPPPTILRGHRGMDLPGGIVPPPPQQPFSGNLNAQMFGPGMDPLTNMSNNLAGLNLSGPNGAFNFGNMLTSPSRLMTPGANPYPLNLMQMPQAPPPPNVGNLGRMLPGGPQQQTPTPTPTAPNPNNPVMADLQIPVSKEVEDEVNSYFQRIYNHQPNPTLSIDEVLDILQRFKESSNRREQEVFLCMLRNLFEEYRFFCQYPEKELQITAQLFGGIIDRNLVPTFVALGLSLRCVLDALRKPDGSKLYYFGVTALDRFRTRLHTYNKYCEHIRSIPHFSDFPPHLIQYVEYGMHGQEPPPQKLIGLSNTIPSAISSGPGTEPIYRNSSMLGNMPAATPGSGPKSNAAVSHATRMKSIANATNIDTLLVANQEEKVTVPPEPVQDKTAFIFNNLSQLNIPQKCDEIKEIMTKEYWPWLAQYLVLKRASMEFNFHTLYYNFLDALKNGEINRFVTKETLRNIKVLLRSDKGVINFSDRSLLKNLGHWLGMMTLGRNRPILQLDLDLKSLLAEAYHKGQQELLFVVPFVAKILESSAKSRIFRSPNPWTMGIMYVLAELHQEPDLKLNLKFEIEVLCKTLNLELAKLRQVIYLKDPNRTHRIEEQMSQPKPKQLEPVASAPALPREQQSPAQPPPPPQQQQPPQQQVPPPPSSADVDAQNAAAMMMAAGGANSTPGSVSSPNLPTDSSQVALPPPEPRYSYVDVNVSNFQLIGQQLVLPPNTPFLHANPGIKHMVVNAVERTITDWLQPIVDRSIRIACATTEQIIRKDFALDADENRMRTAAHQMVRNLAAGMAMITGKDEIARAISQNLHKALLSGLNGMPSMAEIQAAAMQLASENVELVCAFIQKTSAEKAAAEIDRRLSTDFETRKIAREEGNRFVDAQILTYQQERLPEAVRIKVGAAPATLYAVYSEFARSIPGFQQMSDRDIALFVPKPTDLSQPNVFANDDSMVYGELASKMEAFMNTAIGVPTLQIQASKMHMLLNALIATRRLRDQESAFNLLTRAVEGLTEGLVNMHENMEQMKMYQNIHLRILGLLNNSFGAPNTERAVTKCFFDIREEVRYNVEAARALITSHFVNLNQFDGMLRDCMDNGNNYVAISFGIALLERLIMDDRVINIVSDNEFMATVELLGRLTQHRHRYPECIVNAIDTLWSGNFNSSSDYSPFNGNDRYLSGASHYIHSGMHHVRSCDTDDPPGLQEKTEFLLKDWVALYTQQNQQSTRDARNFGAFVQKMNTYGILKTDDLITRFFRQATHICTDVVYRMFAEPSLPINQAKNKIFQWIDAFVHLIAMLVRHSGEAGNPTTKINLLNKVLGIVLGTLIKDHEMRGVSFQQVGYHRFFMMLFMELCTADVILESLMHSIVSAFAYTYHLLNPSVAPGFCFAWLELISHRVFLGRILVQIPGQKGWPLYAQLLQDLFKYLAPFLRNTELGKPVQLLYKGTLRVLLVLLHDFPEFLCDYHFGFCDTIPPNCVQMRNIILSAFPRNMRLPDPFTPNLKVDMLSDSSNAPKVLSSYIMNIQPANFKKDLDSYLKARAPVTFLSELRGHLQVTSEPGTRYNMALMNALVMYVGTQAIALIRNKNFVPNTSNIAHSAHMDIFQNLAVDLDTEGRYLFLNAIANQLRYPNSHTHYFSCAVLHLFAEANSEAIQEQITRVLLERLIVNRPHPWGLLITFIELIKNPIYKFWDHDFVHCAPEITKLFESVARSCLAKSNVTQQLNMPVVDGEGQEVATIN
Hs CAF40 ARM domain V181E (Q92600, form named): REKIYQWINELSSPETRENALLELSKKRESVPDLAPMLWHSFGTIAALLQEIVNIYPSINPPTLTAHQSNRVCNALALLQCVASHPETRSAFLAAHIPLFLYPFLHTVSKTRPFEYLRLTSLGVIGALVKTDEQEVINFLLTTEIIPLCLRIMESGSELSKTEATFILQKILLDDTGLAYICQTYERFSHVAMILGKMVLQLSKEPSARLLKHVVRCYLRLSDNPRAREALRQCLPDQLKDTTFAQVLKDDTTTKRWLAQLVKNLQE
Hs CAF40 ARM domain Y134D, G141W (Q92600, form named): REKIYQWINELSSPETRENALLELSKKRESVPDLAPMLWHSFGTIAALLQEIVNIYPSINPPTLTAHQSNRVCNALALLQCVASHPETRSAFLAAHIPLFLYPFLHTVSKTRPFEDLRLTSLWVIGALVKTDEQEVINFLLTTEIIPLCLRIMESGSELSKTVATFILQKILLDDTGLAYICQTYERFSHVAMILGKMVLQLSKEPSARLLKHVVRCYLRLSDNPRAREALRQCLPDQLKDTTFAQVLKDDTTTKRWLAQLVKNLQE
UniProt Q9NZN8, residues 350-540: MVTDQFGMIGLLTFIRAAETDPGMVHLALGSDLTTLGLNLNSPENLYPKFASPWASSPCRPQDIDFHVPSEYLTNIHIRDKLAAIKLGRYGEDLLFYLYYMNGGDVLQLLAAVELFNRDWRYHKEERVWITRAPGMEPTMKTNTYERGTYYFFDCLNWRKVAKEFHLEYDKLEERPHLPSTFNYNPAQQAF

Tests used:
[1] = target: MBP-NOT1 (residues 1093–2371) (human) (UniProt A5YKK6); experiment: co-purification of co-expressed proteins; five human proteins co-expressed in E. coli; amylose resin, tag cleavage, HiTrap Heparin, Superdex 200 size exclusion
[2] = target: T1, GFP-tagged Dm Roquin (full-length, wild-type) (Drosophila melanogaster) (UniProt Q9VV48); experiment: co-IP; GFP-tagged Dm Roquin and HA-tagged deadenylase or decapping factors co-expressed in Dm S2 cells; lysates treated with RNase A; anti-GFP and anti-HA blots
T1 sequence: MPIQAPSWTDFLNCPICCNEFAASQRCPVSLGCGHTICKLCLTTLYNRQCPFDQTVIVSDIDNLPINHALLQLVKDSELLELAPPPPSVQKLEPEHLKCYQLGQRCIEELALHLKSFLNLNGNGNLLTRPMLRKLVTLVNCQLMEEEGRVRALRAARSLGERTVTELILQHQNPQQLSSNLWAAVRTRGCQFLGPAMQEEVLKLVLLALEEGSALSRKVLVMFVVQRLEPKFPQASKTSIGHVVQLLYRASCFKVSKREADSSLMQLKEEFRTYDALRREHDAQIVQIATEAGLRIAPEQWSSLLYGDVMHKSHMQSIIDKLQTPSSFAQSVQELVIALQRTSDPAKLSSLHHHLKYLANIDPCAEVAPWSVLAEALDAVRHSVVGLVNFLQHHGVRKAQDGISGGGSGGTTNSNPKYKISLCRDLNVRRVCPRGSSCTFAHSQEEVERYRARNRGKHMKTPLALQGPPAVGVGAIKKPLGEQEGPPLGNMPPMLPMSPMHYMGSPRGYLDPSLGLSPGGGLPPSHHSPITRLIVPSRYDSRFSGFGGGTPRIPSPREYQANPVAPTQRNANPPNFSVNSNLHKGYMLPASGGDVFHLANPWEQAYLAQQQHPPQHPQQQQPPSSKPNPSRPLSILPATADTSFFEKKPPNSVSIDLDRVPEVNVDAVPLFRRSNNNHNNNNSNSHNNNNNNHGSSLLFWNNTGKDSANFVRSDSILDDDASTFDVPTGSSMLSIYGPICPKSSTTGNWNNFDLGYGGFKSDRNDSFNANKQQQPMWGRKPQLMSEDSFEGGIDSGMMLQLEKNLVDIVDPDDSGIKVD

[3] = target: T2, MBP-tagged Dm Roq-CC (Drosophila melanogaster) (UniProt Q9VV48); experiment: pull-down; in vitro MBP pulldown: purified MBP-tagged Roquin fragments (40 μg) with equimolar purified CCR4-NOT proteins or subcomplexes on amylose resin; 50 mM HEPES-NaOH pH 7.5, 200 mM NaCl, 2 mM DTT; 1 h; maltose elution, SDS-PAGE, Coomassie; both purified
T2 sequence: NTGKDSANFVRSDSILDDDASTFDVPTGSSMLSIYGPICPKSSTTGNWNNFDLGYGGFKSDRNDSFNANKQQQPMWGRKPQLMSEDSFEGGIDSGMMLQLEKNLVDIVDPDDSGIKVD

[4] = target: T3, MBP-tagged Dm Roquin NBM alone (Drosophila melanogaster) (UniProt Q9VV48); experiment: as above
T3 sequence: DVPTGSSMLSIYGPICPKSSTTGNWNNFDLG

[5] = target: T4, GFP-tagged Dm Roquin ΔCBM (Drosophila melanogaster) (UniProt Q9VV48); experiment: co-IP; GFP-tagged Dm Roquin and HA-tagged deadenylase or decapping factors co-expressed in Dm S2 cells; lysates treated with RNase A; anti-GFP and anti-HA blots
T4 sequence: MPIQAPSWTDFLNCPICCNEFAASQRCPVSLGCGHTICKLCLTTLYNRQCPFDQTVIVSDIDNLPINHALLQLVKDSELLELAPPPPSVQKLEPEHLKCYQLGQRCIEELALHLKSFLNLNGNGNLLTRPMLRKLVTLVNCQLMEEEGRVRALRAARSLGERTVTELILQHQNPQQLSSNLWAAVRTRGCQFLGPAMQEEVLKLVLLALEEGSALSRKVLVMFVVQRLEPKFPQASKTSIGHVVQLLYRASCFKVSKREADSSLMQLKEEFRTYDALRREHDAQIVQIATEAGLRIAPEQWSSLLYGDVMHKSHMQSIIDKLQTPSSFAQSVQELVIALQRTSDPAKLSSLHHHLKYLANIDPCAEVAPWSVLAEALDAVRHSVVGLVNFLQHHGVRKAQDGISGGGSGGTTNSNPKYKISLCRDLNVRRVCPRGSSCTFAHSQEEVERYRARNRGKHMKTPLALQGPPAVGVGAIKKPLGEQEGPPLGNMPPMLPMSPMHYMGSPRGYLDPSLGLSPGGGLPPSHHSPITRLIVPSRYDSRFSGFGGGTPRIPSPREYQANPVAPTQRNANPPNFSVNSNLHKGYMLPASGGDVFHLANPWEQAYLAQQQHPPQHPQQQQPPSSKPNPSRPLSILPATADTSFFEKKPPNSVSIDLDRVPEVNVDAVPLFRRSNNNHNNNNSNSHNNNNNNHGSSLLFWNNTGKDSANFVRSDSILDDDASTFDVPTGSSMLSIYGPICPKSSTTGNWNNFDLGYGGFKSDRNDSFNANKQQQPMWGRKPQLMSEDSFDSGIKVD

[6] = target: T5, GFP-tagged Dm Roquin ΔNBM (Drosophila melanogaster) (UniProt Q9VV48); experiment: as above
T5 sequence: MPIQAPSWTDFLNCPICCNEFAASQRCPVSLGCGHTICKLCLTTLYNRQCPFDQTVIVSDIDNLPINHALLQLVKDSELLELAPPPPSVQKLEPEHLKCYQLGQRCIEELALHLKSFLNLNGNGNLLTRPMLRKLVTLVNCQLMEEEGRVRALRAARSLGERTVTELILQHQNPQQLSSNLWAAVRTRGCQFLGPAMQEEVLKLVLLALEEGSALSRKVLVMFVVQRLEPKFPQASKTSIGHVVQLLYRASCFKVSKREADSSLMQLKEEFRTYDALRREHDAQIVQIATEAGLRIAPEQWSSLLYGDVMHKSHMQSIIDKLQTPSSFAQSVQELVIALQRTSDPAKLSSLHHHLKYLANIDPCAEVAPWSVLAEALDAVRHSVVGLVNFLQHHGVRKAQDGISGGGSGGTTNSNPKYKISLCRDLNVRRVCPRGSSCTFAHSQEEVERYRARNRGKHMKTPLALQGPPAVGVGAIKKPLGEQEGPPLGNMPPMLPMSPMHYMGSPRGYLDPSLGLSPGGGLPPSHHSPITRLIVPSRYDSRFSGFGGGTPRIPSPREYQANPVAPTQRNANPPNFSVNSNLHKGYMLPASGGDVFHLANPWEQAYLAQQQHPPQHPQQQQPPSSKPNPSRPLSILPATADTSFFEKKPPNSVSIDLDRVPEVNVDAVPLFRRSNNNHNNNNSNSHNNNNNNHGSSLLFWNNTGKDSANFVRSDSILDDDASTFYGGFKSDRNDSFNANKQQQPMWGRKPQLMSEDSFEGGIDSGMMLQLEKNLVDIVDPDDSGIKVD

6xHis-NOT3-C (from UniProt O75175 607-748) (domain or fragment)
binding [1]: binds

HA-tagged NOT1 (S2 cells) (from UniProt A8DY81 1-2505)
binding [2]: binds

Hs CAF40 ARM domain V181E (from UniProt Q92600 19-285) (domain or fragment)
binding [3]: no binding

Hs CAF40 ARM domain Y134D, G141W (from UniProt Q92600 19-285) (domain or fragment)
binding [3]: no binding

Hs NOT module (NOT1-SHD, NOT2-C, NOT3-C) (from UniProt A5YKK6 1833-2361; Q9NZN8 350-540; O75175 607-748) (complex)
binding [4]: no binding

MBP-NOT2-C (from UniProt Q9NZN8 350-540) (domain or fragment)
binding [1]: binds

B1: HA-tagged NOT2 (S2 cells) (protein, UniProt Q94547 1-585)
chain: MANLNFQQPPRSIANAALAGRTTGGFGGSSLAGHVTPTSGMFQTDFANSYPGTANYGQAPQQQQQQQQQPQLSPNRNAQLSVGGPAISSGNRNANLFGQRQFVERRAMQGLGSGPMSNMGNFMQTGRGGYGTGGGGGGPLNNFHVFGGGGGSDTSTPALLDPTEFPSLTNARGQNDQTLPQSNPLQPPGSKPYGNFFTSFGMVKQPTSEQSEFTMSNEDFPALPGTQNSDGTTNAVGSVAGTGGSGGASTENHLDGTEKPMNSIVVSGSASGSSGSNVGVVGGNGLGAVGSGIGGLAVGGGGGAGSSGGGGVGGNAASGVVGGSHVGLVGSNSGIGGVNSVPNSNAMMGVGGGLGSGSGSSGSGAGGEHLNDNSSNDKLVKSGVQTSPDGKVTNIPATMVNNQFGMVGLLTFIRAAETDPNLVTLSLGTDLTGLGLNLNSQESLHTTFAGPFVAQPCRAQDVEFNVPPEYLINFAIRDKLTAPVLKKLQEDLLFFLFYTNIGDMMQLMAAAELHSREWRYHVEEKIWITRIPGIDQYEKNGTKERGTFYYFDAQSWKRLSKVFQIDPEKLDKCPNISAFMNGQSV
binding [2]: binds
binding [5]: binds
binding [6]: binds

B2: HA-tagged PAN3 (S2 cells) (protein, UniProt Q95RR8 1-790)
chain: MCSTYGLLSFEFSDTAAMDPIFFSPTNGIPSESKLATYMNRQNVATPSGYGLNNGFSLLNLDSPLNKKSQVTPQSPEFIPTRLGSTPNFYAPYHNAPMQLSNGLNGVNGLTAAAAAAAAAAAAAAAAVPSSTSSASSASVTISKTANGGASMLALQKTASIASVTIAQQQPQHPQKQQQHPPSVGGGAVSAASAPIAISGAPPNPAAAPFVSSMSAQTPLKGRGAMMRQESPTAAMISGAGPGEKSPPHGMTPHGASPIPSALPTSVHQENVGGTIYFYPTANAQNSQPVVNSMVVDGTHPALHGVSAVAPMSAGVPAAMMYTGHVYPGPSSNVVTMQPKTLLESAFFMPDEMRAEVLARNEISNLIMDAAEAAQHALPLEVENYHALYPLEPPAQPLHAKLTFPATTYRATHNTTGYKYCLRRIHGFRLQSTKCMTLVEMWKKLQHTNVVQLREVFTTKAFGDNSLVLVYDYHPGSQTLLAKYFTPAPETNGYTDPFQGEARPFSHKSNMQRTSNGPLLPEATIWSIIMQLTAGLKAIHHAGLACKVLDPTKIIVTGKRVRFSSCCISDITQFDPNASNPLALVNMHQQDDLTALGRLVLALACRCLQSVQRDNVQSSIDMVTRNYSTDLRNFIVYLFTTNNRRSVTDLMPMIGARFYTQLDALQSKIDMQEDELAKEMENGRLYRILVKLNSINERPDFNLDCTWSETGDRYMLKLFRDYLFHSVTEDGRPWLDHAHIVQCLNKLDAGSIERVQLMSRDEQSVLIVSYAELKNCLENAFSELMSSAAN
binding [2]: binds

B3: HA-tagged Me31B (protein, UniProt P23128 1-459)
chain: MMTEKLNSGHTNLTSKGIINDLQIAGNTSDDMGWKSKLKLPPKDNRFKTTDVTDTRGNEFEEFCLKRELLMGIFEKGWERPSPIQEAAIPIALSGKDVLARAKNGTGKTGAYCIPVLEQIDPTKDYIQALVMVPTRELALQTSQICIELAKHLDIRVMVTTGGTILKDDILRIYQKVQLIIATPGRILDLMDKKVADMSHCRILVLDEADKLLSLDFQGMLDHVILKLPKDPQILLFSATFPLTVKNFMEKHLREPYEINLMEELTLKGVTQYYAFVQERQKVHCLNTLFSKLQINQSIIFCNSTQRVELLAKKITELGYCCYYIHAKMAQAHRNRVFHDFRQGLCRNLVCSDLFTRGIDVQAVNVVINFDFPRMAETYLHRIGRSGRFGHLGIAINLITYEDRFDLHRIEKELGTEIKPIPKVIDPALYVANVGASVGDTCNNSDLNNSANEEGNVSK
binding [2]: no binding
